T1: Human ENTPD1 (NP_001767) expressing NIH/3T3 cells (Homo sapiens, UniProt P49961)
T1 construct: expressed in transfected cells; host or cells: NIH/3T3 (retroviral transduction, FACS-sorted)
T1 sequence (P49961 1-510): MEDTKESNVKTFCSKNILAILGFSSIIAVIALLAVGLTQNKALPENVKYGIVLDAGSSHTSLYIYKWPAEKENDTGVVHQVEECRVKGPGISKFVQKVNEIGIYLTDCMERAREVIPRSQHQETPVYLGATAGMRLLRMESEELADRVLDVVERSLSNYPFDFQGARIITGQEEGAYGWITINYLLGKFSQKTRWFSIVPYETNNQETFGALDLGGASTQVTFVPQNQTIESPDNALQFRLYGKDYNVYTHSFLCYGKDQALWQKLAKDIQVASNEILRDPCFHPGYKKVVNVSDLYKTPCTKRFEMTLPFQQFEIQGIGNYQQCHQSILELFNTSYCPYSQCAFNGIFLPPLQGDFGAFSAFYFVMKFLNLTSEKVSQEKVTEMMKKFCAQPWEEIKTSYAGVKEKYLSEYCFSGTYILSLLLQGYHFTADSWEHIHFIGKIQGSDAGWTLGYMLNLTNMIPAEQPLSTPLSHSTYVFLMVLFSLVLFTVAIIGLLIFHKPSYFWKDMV

T2: recombinant human ENTPD2 (residues 29-462) (Homo sapiens, UniProt Q9Y5L3)
T2 construct: residues 29-462 of human or cyno ENTPD2; GP67 signal peptide (N); made in house; host or cells: High Five (Trichoplusia ni) insect cells, baculovirus
T2 sequence (Q9Y5L3 29-462): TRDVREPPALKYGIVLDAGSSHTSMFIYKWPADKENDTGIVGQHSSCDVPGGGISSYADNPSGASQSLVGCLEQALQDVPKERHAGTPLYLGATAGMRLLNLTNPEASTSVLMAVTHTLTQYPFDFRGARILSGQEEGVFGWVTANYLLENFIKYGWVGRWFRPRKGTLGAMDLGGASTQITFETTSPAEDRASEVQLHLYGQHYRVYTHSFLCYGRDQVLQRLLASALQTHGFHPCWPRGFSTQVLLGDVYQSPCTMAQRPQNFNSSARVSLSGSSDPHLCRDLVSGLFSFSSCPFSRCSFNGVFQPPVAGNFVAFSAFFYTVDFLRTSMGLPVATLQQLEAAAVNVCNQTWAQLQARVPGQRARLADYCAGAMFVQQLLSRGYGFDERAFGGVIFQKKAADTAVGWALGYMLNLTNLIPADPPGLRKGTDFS

B1: mAb6: humanized anti-human ENTPD2 antibody derived from mAb16; probably heavy chain SEQ ID NO: 72, light chain SEQ ID NO: 76 (antibody)
heavy: QVQLQESGPGLVKPSQTLSLTCTVSGYSITSGYYWNWIRQHPGKGLEWMGYISYDADNNYNPSLKNRITISRDTSKNQFSLKLSSVTAADTAVYYCAGGYYRYGLGSYSGSYYYVMDYWGQGTTVTVSSASTKGPSVFPLAPSSKSTSGGTAALGCLVKDYFPEPVTVSWNSGALTSGVHTFPAVLQSSGLYSLSSVVTVPSSSLGTQTYICNVNHKPSNTKVDKRV[left out - human IgG1 Fc]
light: DTQMTQSPSSLSVSVGDRATITCKASQSVDYEGHSYMNWYQQKPGKAPKLLIYAASNLESGVPSRFSGSGSGTDFTLTISSVQPEDFATYYCQQSNEDPPTFGGGTKLEIKRTVAAPSVFIFPPSDEQLKSGTASVVCLLNNFYPREAKVQWKVDNALQSGNSQESVTEQDSKDSTYSLSSTLTLSKADYEKHKVYACEVTHQGLSSPVTKSFNRGEC
B2: mAb1: humanized anti-human ENTPD2 human IgG1 antibody derived from mAb17; heavy chain SEQ ID NO: 12, light chain SEQ ID NO: 23 (antibody)
heavy: EVQLVQSGAEVKKPGESLKISCKASGYTFTDYNMDWVRQMPGKGLEWMGDINPKYDISTYNQQFKGQVTISADKSIRTAYLQWSSLKASDTAMYYCARRGFFLYYGINYYYFDVWGQGTLVTVSSASTKGPSVFPLAPSSKSTSGGTAALGCLVKDYFPEPVTVSWNSGALTSGVHTFPAVLQSSGLYSLSSVVTVPSSSLGTQTYICNVNHKPSNTKVDKRV[left out - human IgG1 Fc]
light: DIQLTQSPSSLSASVGDRVTITCSASSSVSYIHWFQQKPGKAPKLLIYSTSNLASGVPSRFSGSGSGTFFTLTISSLQPEDFATYFCHQWSSYPWTFGQGTKVEIKRTVAAPSVFIFPPSDEQLKSGTASVVCLLNNFYPREAKVQWKVDNALQSGNSQESVTEQDSKDSTYSLSSTLTLSKADYEKHKVYACEVTHQGLSSPVTKSFNRGEC

Experiments:
H520 cells = test: Cross reactivity: FACS binding to H520 cells (ENTPD3 and ENTPD8 expression); design: species or system human; conditions: 50 nM antibody
Procedure: (§1) FACS screening: Specific binding of candidate antibodies to endogenously expressed ENTPD2 was assessed by flow cytometry. Cells were rinsed thoroughly with 1× PBS and treated with Accutase (Millipore #SCR005) to lift from growth plates and resuspended at approximately 1×10^5 cells/90 μL in 1× FACS buffer (2% FBS +0.1% NaN3 in PBS). In a 96-well U-bottom plate, 10 μL of 10× antibody solution in FACS buffer was pre-seeded and 90 μL of cell suspension was added. Cell were incubated for 30 minutes at 4° C., washed 1× with cold PBS and resuspended in 100 μL of 1:500 secondary antibody 1× FACS buffer (Allophycocyanin conjugated F(ab′)2 goat anti-human IgG, Fcγ specific; Jackson Immunoresearch, Cat# 109-136-098). After additional incubation for 15 min at 4° C., cells were washed twice with PBS and resuspended in 100 μL of 1× FACS buffer with 4 μg/mL propidium iodide (Life Technologies, Cat# P3566). Geometric mean fluorescence intensity was calculated on live single cells using FlowJo software.
H520 cells were identified as a cancer cell line with ENTPD3 (Ct 25) and ENTPD8 (Ct 26) expression by Taqman and were used for selectivity screening.

[1] = target: T1, Human ENTPD1 (NP_001767) expressing NIH/3T3 cells; test: Cross reactivity: FACS binding to human ENTPD1 expressing NIH/3T3 cells; conditions: 50 nM antibody
Procedure: as §1
Cross reactivity Human ENTPD1 (NP_001767) expressing NIH/3T3 cells were generated using a retroviral transduction approach. 72hrs post transduction, engineered cells were stained with the anti-Human CD39/ENTPD1 APC-conjugated Antibody (R&D systems, Minneapolis, Minn.) and live cells that expressed human ENTPD1 were separated from the rest of the population via fluorescence activated cell sorting. Stable expression of ENTPD1 was periodically re-confirmed by FACS with the above described anti-Human CD39/ENTPD1 APC-conjugated Antibody (1:100).

[2] = tested on: human ENTPD2 engineered B16LM3 clone B5; test: Human ENTPD2 engineered B16LM3 clone B5 model, combination with anti-PD-1 Ab; format: in vivo; conditions: for Tumor Response ΔT/ΔC (%): Day 7; for anti-tumor efficacy: anti-ENTPD2 Ab i.v. day 1, anti-PD-1 Ab 10 mg/kg i.p. D1 and D5
Source text: This model was derived from the B16LM3 melanoma model, where endogenous mouse ENTPD2 expression was knocked out via a transient electroporation of CAS9 protein with CRISPR guide RNA sequences against mouse ENTPD2, and human ENTPD2 was overexpressed using a retroviral transduction approach.
Once tumors reached approximately 35-50 mm^3, mice were randomized according to tumor volume into treatment groups (n=8 per group). […] All doses were adjusted to individual mouse body weights.

[3] = Cynomolgus monkey single and multiple dose pharmacokinetics
B16LM3 clone B5 tumors = test: Plasma and tumor cytokines in human ENTPD2 engineered B16LM3 clone B5 model; format: in vivo, C57BL/6 mice; conditions: 24 hr after 10 mg/kg, vs Isotype Control
Procedure: In order to understand immediate impact of ENTPD2 blockade from immune pathway engagement perspective, plasma and B16LM3 clone B5 tumors (mean tumor volume ˜170 mm^3) were collected from C57BL/6 mice 24 hr after treatment with anti-human ENTPD2 mAb1 or Isotype Control at 10 mg/kg.
Briefly, plasma was isolated via collection of blood into Microvette MV-H-300 Capillary Plasma Lithium Heparin Blood Collection tube (Sai Infusion technologies, Lake Villa, Ill.), that were spun down at 1000-2000 ×g for 10 min. Plasma samples were stored at −80° C. until use. Tumor samples were surgically excised and immediately frozen in liquid nitrogen. Tumor tissue was then homogenized in T-PER Tissue Protein Extraction Reagent (ThermoFisher, Waltham, Mass.) using the TissueLyser (Qiagen, Germany) instrument. Tumor lysate samples were spun down at 11,000 rpm for 15 min and supernatants were collected for protein concentration analysis using Pierce BCA Protein Assay Kit (ThermoFisher, Waltham, Mass.). 200 μg of protein or 25 μl of undiluted plasma was used for cytokine analysis using the V-PLEX Mouse Cytokine 29-Plex Kit (MSD, Rockville, Md.) according to manufacturer's recommendations.

[4] = target: T2, recombinant human ENTPD2 (residues 29-462); test: Biochemical human ENTPD2 functional assay (Transcreener ADP2 TR-FRET)
[5] = single agent anti-human ENTPD2 mAb 10 mg/kg D1, no anti-PD-1 Ab
[6] = i.v., 10 to 100 mg/kg (10-fold increase in dose)
[7] = single i.v. dose, 3 to 10 mg/kg (3.3-fold increase in dose)

| Molecule | Apparent FACS binding at 50 nM, H520 Cells (H520 cells) | Apparent FACS binding at 50 nM, NIH/3T3 - ENTPD1 [1] | Tumor Response ΔT/ΔC (%) [2, 5] | anti-tumor efficacy [2] | Host Response Survival (alive/total) [2, 5] | Host Response Δ body weight (%) [2, 5] | increase in AUC(0-336h) [3, 6] | increase in AUC(0-inf) [3, 6] | increase in AUC(0-inf) [3, 7] | increase of AUC(0-336h) [3, 7] | decrease of IL-1β in plasma (B16LM3 clone B5 tumors) | increase in MCP1 at the tumor site (B16LM3 clone B5 tumors) | inhibition of the catalytic activity of recombinant human ENTPD2 [4] |
| --- | --- | --- | --- | --- | --- | --- | --- | --- | --- | --- | --- | --- | --- |
| B1 | No binding | No binding | 60.0% | No significant anti-tumor efficacy | 8/8 | −0.1% | – | – | – | – | – | – | – |
| B2 | No binding | No binding | 71.7% | No significant anti-tumor efficacy | – | −0.2% | approximately 9.5 fold | approximately 9.5 fold | 5.9 fold | 5.3 fold | approximately 2 fold | approximately 2 fold | potently inhibit |

Reference: patent publication US20220340685A1, “COMBINATION THERAPY WITH ENTPD2 AND CD73 ANTIBODIES” (Novartis AG, priority 2019, published 2022)
